The campaign covered roughly 310,000 compounds. About 14,000 (4.5%) showed an effect of 50% or more. Effects have a minus sign here. The list shows a part of the results.
What follows are compounds tested against human ether-à-go-go-related gene (hERG) potassium channel (human, UniProt Q12809) (assay: primary screen, population patch clamp on CHO cells stably expressing hERG).
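Also: peak tail current of the secondary pulse compared with the same well before compound.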

Sequence of human ether-à-go-go-related gene (hERG) potassium channel (Q12809 whole entry, looked up): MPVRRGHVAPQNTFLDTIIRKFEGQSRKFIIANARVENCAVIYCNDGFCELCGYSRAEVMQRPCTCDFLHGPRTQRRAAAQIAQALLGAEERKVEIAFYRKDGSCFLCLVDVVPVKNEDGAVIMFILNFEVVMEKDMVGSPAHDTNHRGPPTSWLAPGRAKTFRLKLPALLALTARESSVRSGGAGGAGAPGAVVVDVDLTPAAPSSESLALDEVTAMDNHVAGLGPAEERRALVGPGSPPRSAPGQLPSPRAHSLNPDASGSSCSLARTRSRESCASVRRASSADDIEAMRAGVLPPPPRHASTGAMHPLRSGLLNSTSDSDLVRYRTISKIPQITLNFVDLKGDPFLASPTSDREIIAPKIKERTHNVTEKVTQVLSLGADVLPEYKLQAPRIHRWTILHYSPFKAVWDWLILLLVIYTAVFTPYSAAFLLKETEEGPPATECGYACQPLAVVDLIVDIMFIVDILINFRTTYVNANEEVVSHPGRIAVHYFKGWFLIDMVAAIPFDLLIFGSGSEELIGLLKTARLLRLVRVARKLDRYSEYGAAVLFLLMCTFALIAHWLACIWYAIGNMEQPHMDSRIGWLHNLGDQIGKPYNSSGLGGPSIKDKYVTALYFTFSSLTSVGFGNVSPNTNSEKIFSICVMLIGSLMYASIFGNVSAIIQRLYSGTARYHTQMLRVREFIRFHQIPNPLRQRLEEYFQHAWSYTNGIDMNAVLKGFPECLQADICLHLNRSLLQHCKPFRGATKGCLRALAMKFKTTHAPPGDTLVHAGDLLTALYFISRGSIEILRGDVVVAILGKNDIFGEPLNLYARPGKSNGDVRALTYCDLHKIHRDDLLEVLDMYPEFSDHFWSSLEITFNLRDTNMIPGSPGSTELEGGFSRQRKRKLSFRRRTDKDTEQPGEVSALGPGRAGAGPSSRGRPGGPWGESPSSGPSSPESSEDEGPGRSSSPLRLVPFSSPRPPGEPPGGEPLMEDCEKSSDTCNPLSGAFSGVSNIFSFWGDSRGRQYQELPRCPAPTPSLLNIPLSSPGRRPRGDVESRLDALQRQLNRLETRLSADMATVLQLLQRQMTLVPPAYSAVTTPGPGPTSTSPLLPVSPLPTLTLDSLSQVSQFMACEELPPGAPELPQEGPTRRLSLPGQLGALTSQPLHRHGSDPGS

| Compound | hERG current change (%, negative = inhibition) at 10uM |
| --- | --- |
| COC(=O)C1=C(c2ccc(OC)c(OC)c2)C[C@@H]2CC[C@H]1N2C(=O)NCCOc1ccccc1Cl | -12.7% |
| O=C1CC(N2CCN(c3ncccn3)CC2)C(=O)N1CCc1ccccc1 (centres unmarked) | 17.3% |
| Cc1nnc(SCC2=C(C(=O)O)N3C(=O)C(NC(=O)Cn4ncc(Cl)c4C)C3SC2)s1 (centres unmarked) | 26.9% |
| O=C(c1ccc(Cl)cc1)C(CN1CCCC1)c1ccccc1 (centres unmarked) | -10.3% |
| COc1ccc(N=C2SCC(c3ccc([N+](=O)[O-])cc3)=NN2CCO)cc1 | -53.1% |
| O=C1C=C(Nc2ccccc2)CC(c2ccccc2)C1 (centres unmarked) | 9.51% |
| COc1ccc(-c2cc(C)no2)cc1S(=O)(=O)N1CCN(c2ccccc2F)CC1 | 3.36% |
| COc1cccc(CNC(=O)C(=O)NCCC2CCCCN2S(=O)(=O)c2ccc(C)cc2)c1 (centres unmarked) | -0.335% |
| CC12CCC(C(=O)Nc3ccc4c(c3)OCCO4)(OC1=O)C2(C)C (centres unmarked) | -8.28% |
| Cc1ccc2[nH]c3c(=O)n(CC(=O)NCCCN4CCN(c5ccc(F)cc5)CC4)ncc3c2c1 | 14.8% |
| COc1ccc(OCC(=O)NC(=S)Nc2ccc(S(=O)(=O)Nc3cc(OC)nc(OC)n3)cc2)cc1 | 10.7% |
| CCOc1nc(SCCOc2ccccc2)nc(N(C)C)n1 | -13.7% |
| COc1ccc(CN(C(=O)c2ccc(-c3ccccc3)[nH]2)C(C(=O)NCC2CCCO2)c2ccc(C)o2)cc1 (centres unmarked) | -13.4% |
| COc1ccc(-c2noc(CCCc3ccccc3)n2)cc1OC | -8.78% |
| CCCCOC(=O)CCc1n[nH]c(=O)[nH]c1=O | 1.61% |
| COc1ccc(CNC(=O)/C(C#N)=C2\N=C(NC(=O)c3cccs3)c3ccccc32)cc1 | -0.714% |
| Cc1ccc(SC(CC(=O)c2ccc(C)cc2)C(=O)O)cc1 (centres unmarked) | 9.22% |
| C/C(CCc1c[nH]c2ccccc12)=N\O | -1.39% |
| Cc1ccc(Nc2nc(CSc3n[nH]c(N)n3)cs2)cc1 | 14.3% |

| Compound | hERG current change (%, negative = inhibition) at 10uM |
| --- | --- |
| O=C(O)c1cccc2c1C(=O)c1ccc(N3CCCCC3)cc1S2(=O)=O | 9.28% |
| COc1ccc(Nc2nc(-c3cc4cccc(OC)c4oc3=O)cs2)cc1 | 11.6% |
| O=C(NNC(=O)c1ccco1)c1ccc(NS(=O)(=O)c2cccs2)cc1 | 14.9% |
| O=C(OCC(=O)N(C1CCCCC1)C1CCCCC1)c1ccccc1O | 10.5% |
| COc1ccc(C(=O)NCc2nnc(SCC(=O)Nc3nc4ccccc4s3)o2)cc1 | 9.66% |
| COc1ccc(C(=O)NC(CC(=O)O)c2cc([N+](=O)[O-])ccc2Cl)cc1 (centres unmarked) | 24% |
| COc1ccc(N=Nc2ccc(N)nc2N)cc1 | 18.5% |
| COc1ccc(Cl)cc1NCC(=O)Nc1ccc(OC)c(S(=O)(=O)N2CCCCC2)c1 | -9.19% |
| Cc1cc(C)n(-c2cc(C(=O)O)cc(C(=O)O)c2)n1 | 14.7% |
| O=C(c1cc2sccc2n1Cc1ccc(F)cc1)N1CCCc2ccccc21 | 15.3% |
| CCOc1ccccc1OCCCC(=O)N1CCN(S(=O)(=O)c2cccc(F)c2)CC1 | -28.6% |
| CCC(=O)NC(C)c1cc(Cl)c2ccccc2c1O (centres unmarked) | -4.05% |
| O=C(O)COc1ccc(NC(=O)c2ccc(NC(=O)c3ccco3)cc2)cc1 | 8.95% |
| CCOC(=O)c1c(N)sc(C(O)(C(F)(F)F)C(F)(F)F)c1-c1ccc(Cl)cc1 | -4.79% |
| Cc1[nH]nc2c1/C(=N/O)CC(c1ccccc1)C2 (centres unmarked) | 8.29% |
| O=S(=O)(c1ccc(NC2CCCc3ccccc32)nc1)N1CCOCC1 (centres unmarked) | 2.1% |
| CCCC(C)n1[nH]c(=O)c2c1NC(=O)CSC2c1ccccc1 (centres unmarked) | -6.71% |
| NNc1nc2c(-c3ccc(Cl)cc3)nnn2c2ccccc12 | 3.39% |
| COc1cccc(/C=N/NC(=O)CCNc2n[nH]c(=O)[nH]c2=O)c1OC | 15.9% |

| Compound | hERG current change (%, negative = inhibition) at 10uM |
| --- | --- |
| C=CCNC(=O)CSc1ncc2c(n1)-c1c(csc1SC)CC2 | -11.2% |
| COc1ccc(CN2CCN(C3CCSCC3)CC2CCO)c(C)c1C (centres unmarked) | -51.1% |
| Cc1cc(C)n(S(=O)(=O)/C=C/c2ccccc2)n1 | -0.911% |
| Cc1c(OCC(=O)N2CCC[C@@H]2C(=O)O)ccc2c3c(c(=O)oc12)CCC3 | 6.59% |
| O=C(CCC(=O)OCc1cccc([N+](=O)[O-])c1)Nc1ccccc1Cl | 11.4% |
| COc1ccc(N2CCN(C(=O)C(Cc3ccccc3)n3cccc3)CC2)cc1 (centres unmarked) | -13.3% |
| Cc1ccc(-c2nnnn2-c2ccccc2C(=O)O)cc1 | 14.6% |
| CCCc1c(C(=O)Nc2ccc(N3CCOCC3)cc2)cnn1-c1ccccc1 | 8.44% |
| Cc1ccc(CSc2nc3ccccc3c(=O)[nH]2)cc1 | 2.97% |
| COc1ccc(NS(=O)(=O)c2cc(NC(=O)/C=C/c3ccccc3OC)ccc2N2CCCCC2)cc1 | 15.7% |
| O=C(COC(=O)CCc1nc2ccccc2s1)Nc1ccc(S(=O)(=O)N2CCOCC2)cc1 | -32.9% |
| CCOc1ccccc1NC(=O)CSc1ccc(-c2sc(C)nc2C)nn1 | 0.811% |
| Cc1cc(C(=O)N/N=C/C=C/c2ccccc2)c(C)o1 | -5.38% |
| CC(=O)N1CCN(Cc2nc3ccc(Cl)cc3n2CCO)CC1 | -4.05% |
| O=C(Nc1ccc(Cl)c(C(F)(F)F)c1)N1CCCC(O)C1 (centres unmarked) | 10.9% |
| COc1cccc(C(=O)Nc2ccc(C(=O)NCC3CCCO3)cc2)c1 (centres unmarked) | 9.5% |
| O=C(O)c1cccc(C(=O)O)c1Br | 7.35% |
| Brc1cccc(OCCN2CCc3ccccc3C2)c1.Cl | -5.84% |

Reference: publication PMC4336329 (PLoS ONE, 2015)
